Assay results from PubChem BioAssay AID1963576 (National Center for Advancing Translational Sciences (NCATS), 2024).
About 60 (0.1%) of roughly 46,000 compounds were called active. Roughly 3% stayed inconclusive and do not appear here. Calls come from the whole dose curve; as a rule, active = well fitted inhibition curve with a large enough effect; inconclusive = small, poorly fitted or top-dose-only effect; inactive = no such curve, though single readings can be large or run the other way. The list shows a part of the results.

Assay: Primary qHTS assay for Inhibitors of ovarian cancer metastasis using an organotypic tumor microenvironment (TME) model.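 For activity change, negative = inhibition: plate controls were DMSO wells for no effect and tomatine positive control wells for full effect.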 Note: nearly all actives have a fitted effect of over 65% in size.
Conditions: SKOV3ip1-GFP adhesion/invasion on 3D omental model, fluorescence; series mostly up to 45.8 µM; activity change, negative = inhibition: at the top concentration
How it was run: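 qHTS, 4-pt dose (0.36-46 umol/L); SKOV3ip1-GFP, 1,200 cells/well, no FBS; primary omental fibroblast/mesothelial co-culture 48 h pre-grown; 2 h RT + 16 h 37 C; PBS wash, 4% PFA; GFP count 488/509 nm.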

Activity change, negative = inhibition, inactive:
CCc1cccc(NC(=O)c2cn3c4c(ccc(Cl)c4c2=O)OC(C)C3)c1 (stereo unspecified) 7.58%
COc1cc(C(=O)OCc2cc(=O)n3nc(C4CCCCC4)sc3n2)cc(OC)c1OC -11.3%
COc1cccc(NC(=O)C2CCN(S(=O)(=O)c3cccc4nonc34)CC2)c1 9.54%
COc1ccc(CNC(=O)c2ccc(NC(=O)N3CC4CCCN4c4ccccc43)cc2)cc1 (stereo unspecified) 2.38%
CCN1CCN(C(c2ccc(OC)cc2)c2c(O)cc(C)n(Cc3ccco3)c2=O)CC1 (stereo unspecified) 52.2%
CC1CCCCN1C(=O)Cn1c(=O)n(-c2ccc(Cl)cc2)c(=O)c2c3c(sc21)CCC3 (stereo unspecified) 21.8%
Oc1cccc(-c2nc(N3CCOCC3)c3oc4ncccc4c3n2)c1 -11% [at 92.2 µM]
COc1cccc(NC(=O)Cn2c(=O)cc(C)c3c(C)nn(-c4cccc(F)c4)c32)c1 3.29%
Cc1ccc(-n2ncc(C(=O)NCCc3ccccc3)c2C2CCN(C(=O)OC(C)(C)C)CC2)c(C)c1 17.5%
CC(=O)c1ccc(S(=O)(=O)Nc2ccc(-c3ccc(N4CCCCCC4)nn3)cc2)cc1 3.33%
Cc1ccc2c(=O)cc(C(=O)Nc3ccc(S(=O)(=O)N4CCC(C)CC4)cc3)oc2c1C -1.76%
CSc1nc(=O)c2c(n1C)NC(=O)CC2c1ccccc1OC(C)C (stereo unspecified) 1.56%
COc1ccc(-c2nc3ccccc3n3c(-c4cccc(C)c4)c4c(=O)n(C)c(=O)n(C)c4c23)cc1 5.72%
Cc1ccc(CSc2nnc(-n3c(=O)c(C#N)cc4c(=O)n5cccc(C)c5nc43)s2)cc1 -7.76%
COc1cccc(-c2nn3c(=O)cc(CN4CCN(S(=O)(=O)c5ccc(C)cc5)CC4)nc3s2)c1 -17%
O=C(Cc1ccccc1)Nc1sc2c(c1C(=O)Nc1ccccc1)CCCCC2 0.71%
COc1cc(C2CC(=O)Nc3c2c(C)nn3-c2nc(C)cc(C)n2)cc(OC)c1O (stereo unspecified) 13.4%
COc1cccc(CNCCSc2nnnn2C)c1OCc1ccccc1 13.8%
CCc1ccc2c(c1)c(=O)c(S(=O)(=O)c1ccc(Cl)cc1)cn2CC 1.98%
CCOc1ccc(CCNC(=O)CCCn2c(=O)c3cccn3c3cccnc32)cc1OCC 21.3%
O=C(CC1(O)C(=O)N(CCc2ccccc2)c2ccc(Br)cc21)c1ccc(F)cc1 (stereo unspecified) -6.97%
Cc1nn(Cc2ccc(Cl)c(Cl)c2)c(C)c1NC(=O)c1noc2c1CCc1ccccc1-2 -3.57%
COc1cccc(-c2cn3c(n2)sc2cc(C(=O)NCCCc4ccccc4)ccc23)c1 2.91%
CSc1ccc(CNC(=O)C2CCCN(S(=O)(=O)N(C)c3ccc(F)cc3)C2)cc1 (stereo unspecified) -3.46%
Cc1ccc(S(=O)(=O)NCC2CCC(C(=O)NCc3ccc(F)cc3)CC2)cc1 (stereo unspecified) 14.5%
CCc1ccc(CNC(=O)c2cc3cc(S(=O)(=O)N4CCCCC4)ccc3n2C)cc1 34.1%
Nc1c(C(=O)NCc2ccc(Cl)cc2Cl)nnn1Cc1ccc(Br)cc1 -0.939%
NC[C@@H]1O[C@@H](O[C@H]2[C@@H](O)[C@H](O[C@@H]3[C@@H](O)[C@@H](N)C[C@H](N)[C@H]3O[C@H]3O[C@H](CN)[C@@H](O)[C@@H](O)[C@H]3N)O[C@H]2CO)[C@H](N)[C@@H](O)[C@@H]1O 37.3%
COc1cc2c(=O)n(Cc3ccccc3Cl)c(=O)n(CC(=O)Nc3ccccc3)c2cc1OC 18.8%
Cc1ccc2nc(NC(=O)CSc3nc4c(c(=O)n3-c3ccccc3)SCC4)sc2c1 -5.35%
O=C(CCC(=O)N1CC2CCCN2c2ccccc21)NCc1cccc(Cl)c1 (stereo unspecified) -23.3%
O=C(Nc1ccc(F)cc1F)C(Cc1ccccc1)N1Cc2ccccc2C1=O (stereo unspecified) 9.91%
COc1cccc(-n2c(-c3ccc(Cl)cc3)cc3c2CC(C)(C)CC3=O)c1 -4.08%
COc1ccc(C)cc1NC(=O)C1CCN(S(=O)(=O)c2c(C)noc2/C=C/c2ccco2)CC1 -6.27%
CCOc1ccc(NC(=O)CCC(=O)N2CC(C)Oc3ccc(C)cc32)cc1 (stereo unspecified) 2.77%
COc1ccc(CN2C(=O)c3oc4ccc(F)cc4c(=O)c3C2c2ccc(O)cc2)cc1 (stereo unspecified) 13.6%
Cc1ccc(-c2nnc(SCC(=O)NC3CCCC3)nc2-c2ccc(C)cc2)cc1 -8.87%
Cc1ccc(C(=O)Nc2nc3ccc(S(=O)(=O)N4CCCC4)cc3s2)cc1 -3.49%
Cc1nc(N2CCOCC2)c2c(C(=O)NCCc3ccccc3)c(C)oc2n1 0.204%
Cc1ccc(C(=O)n2nc(-c3ccco3)nc2NCc2cccs2)cc1 -1.56%
O=C(CSc1nc2c(c(=O)[nH]1)CN(Cc1ccc(F)cc1)CC2)Nc1ccccc1Cl 1.26%
O=C(NCCc1ccccc1Cl)c1ccc2c(c1)nc1n2CCOC1 5.08%
O=C(NCCc1ccccc1)C1(c2cccs2)CCOCC1 7.52%
CN(C)S(=O)(=O)n1cc(/C=C(\NC(=O)c2ccccc2Cl)C(=O)NCCCn2ccnc2)c2ccccc21 4.66%
CCN(CC)CCNC(=O)c1nn(-c2ccc(OC)c(Cl)c2)c(=O)c2c1c1ccccc1n2C 2.51%
CCOC(=O)C1CCN(S(=O)(=O)c2cc3c4c(c2)CC(=O)N4CCC3)CC1 7.98%
CCCNC(=O)c1c(C)nn(-c2cccc(C)c2)c1-n1cccc1 -16.6%
COc1cc(OC)cc(-c2nc3nc(C)c(CCC(=O)Nc4ccc(F)cc4F)c(C)n3n2)c1 -3.69%
Cc1ccc(Cn2cc(C(=O)c3ccc(F)cc3)c(=O)c3cc4c(cc32)OCCO4)cc1 -3.35%
CCc1ccccc1NC(=O)CSCc1cnn(-c2ccccc2)c1-n1cccc1 0.883%
Cc1ccc2c(c1)c1c(c(=O)n(-c3ccccc3C)c(=O)n1CC(=O)N1CCCC1)n2C -1.84%
Cc1ccccc1Nc1sc(C(=O)c2ccccc2)c(N)c1C(=O)NCc1ccc(Cl)cc1 -2.86%
Cc1ccc2ncc3c(-c4ccc(F)cc4)nn(-c4cccc(F)c4)c3c2c1 2.3%
CCOc1ccccc1CNCCNC(=O)c1nonc1N -2.82%
CCC(C)NC(=O)CSc1nc2cc3c(cc2c(=O)n1CCCCCC(=O)NCc1ccc2c(c1)OCO2)OCO3 (stereo unspecified) 6.39%
Cc1ccc(CNC(=O)C2CCN(S(=O)(=O)c3ccc4[nH]c(=O)ccc4c3)CC2)cc1 -22.5%
Cc1ccccc1S(=O)(=O)Cc1ccc(C(=O)NC2CCC(C)CC2)o1 (stereo unspecified) 2.51%
CCOc1ccc(NC(=O)Cn2c(=O)n(-c3ccccc3)c(=O)c3ccc(C(=O)NCc4ccc5c(c4)OCO5)cc32)cc1 24%
COc1cccc2cc(C(=O)Nc3ccc(F)c(F)c3)c(=O)oc12 -22.9%
O=C(Cn1c(=O)n(Cc2cccs2)c(=O)c2cccnc21)Nc1ccc(F)cc1 -8.6%
CC1(C)C(=O)N(CC(=O)Nc2cccc(F)c2)c2ccc(S(=O)(=O)N3CCCCC3)cc21 -0.851%
Cc1cc(-c2ccc(C)c(S(=O)(=O)NC3CCCCC3)c2)on1 18.1%
CCOc1ccc(-n2ccnc2SCC(=O)Nc2nc3ccc(C)cc3s2)cc1 3.68%
CCCCCSc1nnc(-c2ccc(Br)cc2)o1 5.57%
Cc1ccc(Cl)cc1-n1c(=O)c2sc3ccccc3c2n(Cc2ccccc2)c1=O 1.85%
O=C(Nc1cccc(F)c1)[C@H](CSCc1ccccc1)N1Cc2ccccc2C1=O 4%
COc1ccc(NC(=O)C2CCN(S(=O)(=O)c3ccc4[nH]c5c(c4c3)CCCCC5)CC2)cc1 4.25%
CCOc1ccc(NC(=O)Cn2cc(S(=O)(=O)NC)c(S(=O)(=O)NC)c2)cc1 -3.03%
Cn1c(=O)c(Oc2ccc(F)cc2F)cc2cnc(NC3CCOCC3)nc21 -20.3%
CC(C)c1ccc(-c2nc(C(N)=O)c3c(n2)n(-c2ccc4c(c2)OCO4)c(=O)n3C)cc1 21.5%
CC(C)CCN1C(=O)c2ccccc2CC1(C)C(=O)NC1CCC(C)CC1 (stereo unspecified) 6.39%
Cc1ccc(NC(=O)C2CCCN(c3ncnc4onc(-c5ccc(F)cc5)c34)C2)c(Cl)c1 (stereo unspecified) -5.3%
CCCCOc1cccc(C(=O)Nc2cccc(-c3nc4ncccc4o3)c2C)c1 4.71%
C=C1c2cccc(O)c2C(O)=C2C(=O)[C@@]3(O)C(O)=C(C(N)=O)C(=O)[C@@H](N(C)C)[C@@H]3[C@@H](O)[C@H]12 -4.3%
Cc1cccc(N2CCN(C(=O)CN3C(=O)COc4ccc(S(=O)(=O)N5CCCCCC5)cc43)CC2)c1C -14.5%

outcome, inactive:
CCOC(=O)c1cc(C)n(CC2CCC(C(=O)Nc3ccc(C(C)=O)cc3)CC2)c1C (stereo unspecified)
CCN(CC)c1nc2c(-c3cccc(Br)c3)nnn2c2ccccc12
COCCCn1c(=N)c(C(=O)NCC2CCCO2)cc2c(=O)n3cc(C)ccc3nc21 (stereo unspecified)
Cc1ccc(Nc2c(-c3ccc(N(C)C)cc3)nc3nc[nH]n23)cc1
COC(=O)CC1Oc2ccccc2-n2cc(-c3ccc(C)cc3)nc21 (stereo unspecified)
CCCn1ccc2c(OCC(=O)Nc3cc(C)ccc3C)cccc2c1=O
CCCCn1cc2c(c1-c1ccccc1Br)c(=O)n(C)c(=O)n2C
COc1cccc(C(=O)N2c3nc(-c4ccco4)nn3C3(CCCCC3)[C@@H]3CCCC[C@@H]32)c1
CCc1nn(C(C)C(=O)N2CCN(c3cccc(C(F)(F)F)c3)CC2)c(=O)c2cc3occc3n12 (stereo unspecified)
COc1cc(OC)c(NC(=O)CC(c2cccs2)N2Cc3ccccc3C2=O)cc1Cl (stereo unspecified)
Cc1nc2nc[nH]n2c(=O)c1CCC(=O)Nc1ccc(F)cc1
Cc1nn(-c2ccccc2)c2c1N(CC(=O)N1CCN(c3ccc(F)cc3)CC1)C(=O)CS2
CCOc1cc(-c2nnc(SCC(=O)NC3CCCC3)nc2-c2ccc(OC)c(OCC)c2)ccc1OC
O=C(CSc1nccn1C1CCCC1)Nc1ccc(C(F)(F)F)cc1
CCOC(=O)C1=C(C)NC(=O)NC1c1cn(-c2ccccc2)nc1-c1ccc(OCC)cc1 (stereo unspecified)
CSc1ncc(C(=O)N2CCN(c3cc(C)ccc3C)CC2)c(C)n1
